Source: PubChem BioAssay AID938 (National Center for Advancing Translational Sciences (NCATS), 2007)
About 1,800 (2.5%) of roughly 73,000 compounds were called active. This list was built around the results that the source calls inconclusive (neither active nor inactive); the mix of calls is not that of the screen. The call rests on the fitted dose curve; in most records, active means well fitted activation curve with a large enough effect; inconclusive means small, poorly fitted or top-dose-only effect; inactive means no such curve, though single readings can be large or run the other way. No potency is given beside an inconclusive call; the fits are too rough. Some structures have more than one record in an assay (separate samples or runs), and their calls can disagree.

assay: qHTS Assay for Agonists of the Thyroid Stimulating Hormone Receptor: Activators of Intracellular cAMP Concentrations in Parental HEK 293; settings: parental HEK293 CNG cAMP sensor, membrane potential fluorescence; series mostly up to 57.1 µM; further: nearly all actives have a fitted effect of over 55% in size
In short: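 Counterscreen for endogenous-receptor signalling: CNG-channel HEK 293 cells report cAMP rise by membrane depolarization. After 60 min dye equilibration with 100 uM RO 20-1724, compounds incubated 30 min before bottom-read fluorescence at 590 nm.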
Potency means the concentration at half of the fitted maximal effect; tags describe the fitted curve by direction and shape.

With `O=C(CSc1nnc(-c2ccc(Br)cc2)o1)Nc1cccc2ccccc12` as the molecule, how does the Potency read?
The Potency was “inactive”.

With `COC(=O)[C@H](Cc1ccccc1)NC(=O)[C@]1(C)C[C@H]1[C@H](NC(=O)OCc1ccccc1)c1ccccc1` as the molecule, how does the Potency read?
The Potency was active: 5.01 µM.

With `Cc1cc2cc(CN(CCCN3CCOCC3)C(=O)NC3CCCCC3)c(=O)[nH]c2cc1C` as the molecule, how does the Potency read?
Its Potency is inconclusive [activator, partial curve].

With `O=C(O)c1cccc(N=Nc2c(S(=O)(=O)O)ccc3c2C(=O)c2ccccc2C3=O)c1O` as the molecule, how does the Potency read?
Its Potency is inconclusive [activator, single point].

Which Potency does the source give for `CCOC(=O)N1CCN(c2cc(NCCC(=O)O)c3c4c(onc24)-c2ccccc2C3=O)CC1` here?
Its Potency is “inactive”.

For `COc1ccc2cc(CN(Cc3ccco3)Cc3nnnn3C3CCCCC3)c(=O)[nH]c2c1`, which Potency is on record?
Its Potency is inconclusive [activator, single point].

With `C[C@@H](C(=O)Nc1ccc2ccccc2c1)[C@H]1C[C@]1(C)[C@H](NC(=O)c1cnccn1)c1ccccc1` as the molecule, how does the Potency read?
The Potency was active: 15.8 µM.

For `COc1cccc(NC(=O)c2ccc(CN3CCOCC3)cc2)c1`, which Potency is on record?
Its Potency is “inactive”.

With `CS(=O)(=O)N1CCC2(CCN(Cc3ccc(C#N)cc3)CC2)CC1` as the molecule, how does the Potency read?
The Potency was “inactive”.

With `Cc1noc(C)c1C(=O)N1CCC2(CCCN(C(=O)Nc3cccc(F)c3)C2)CC1` as the molecule, how does the Potency read?
The Potency was “inactive”.

Which Potency does the source give for `O=C1c2ccccc2C(Nc2ccc3c(c2)OCCO3)N1Cc1ccco1` (stereo not given) here?
Its Potency is inconclusive [activator, partial curve].

For `Cc1ccsc1C(=O)OCC(=O)c1cc(C)n(CC2CCCO2)c1C` (stereo not given), which Potency is on record?
The Potency was inconclusive [activator, partial curve].

With `CCCCn1c(-c2ccccc2)nnc1-c1ccccc1` as the molecule, how does the Potency read?
Its Potency is inconclusive [activator, partial curve].

With `O=c1c(-c2ccc(F)cc2)nc2cnc(Oc3ccccc3)nc2n1C1CC1` as the molecule, how does the Potency read?
The Potency was inconclusive [activator, partial curve].

For `CS(=O)(=O)N1CCCC(c2nc(-c3ccc(S(=O)(=O)NCc4ccccc4)cc3)no2)C1` (stereo not given), which Potency is on record?
Its Potency is inconclusive [activator, full curve, poor fit].

For `O=C(Nc1ccccc1)N1CC2(CCN(C(=O)c3cccc(F)c3)CC2)C1`, which Potency is on record?
Its Potency is inconclusive [activator, single point].

Which Potency does the source give for `N#Cc1c(NC(=O)CN2CCOCC2)oc(-c2ccccc2)c1-c1ccccc1` here?
The Potency was inconclusive [activator, single point].

Which Potency does the source give for `Cc1csc(NC(=O)CSc2nnc(-c3ccoc3C)n2CCc2ccccc2)n1` here?
Its Potency is inconclusive [activator, single point].

For `CNc1nnc(-c2cc3ccccc3oc2=O)s1`, which Potency is on record?
Its Potency is inconclusive [activator, partial curve].

For `O=C1CC(N2CCN(c3nc4ccccc4s3)CC2)C(=O)N1c1ccc(F)cc1` (stereo not given), which Potency is on record?
The Potency was inconclusive [activator, partial curve].

Which Potency does the source give for `COc1ccccc1NC(=O)c1ccccc1-c1nc(-c2ccccc2OC)no1` here?
Its Potency is active: 25.1 µM.

For `O=C(NCc1cccs1)c1cc2c(s1)-c1ccccc1OC2`, which Potency is on record?
Its Potency is “inactive”.

Which Potency does the source give for `COc1ccccc1CN(CC(=O)NCc1ccco1)C(=O)CNS(=O)(=O)c1ccccc1` here?
The Potency was inconclusive [activator, single point].

Which Potency does the source give for `CCC(C)(C)NC(=O)C1CCN(c2nc(C)cc(C)n2)CC1` here?
Its Potency is inconclusive [activator, single point].

Which Potency does the source give for `COc1ccc(CNC(=O)c2ccc(NS(=O)(=O)c3c(C)noc3C)cc2)cc1` here?
The Potency was “inactive”.

With `Cn1cccc1C(=O)N1CCC2(CCCN(c3ccccc3)C2)CC1` as the molecule, how does the Potency read?
Its Potency is inconclusive [activator, partial curve].

With `Cc1cccc(CNc2ncnc3ccc(-c4ccoc4)cc23)c1` as the molecule, how does the Potency read?
Its Potency is active: 31.6 µM.

With `Cc1cc(C)cc(N(CCC#N)C(=O)CSc2nc3nc(C)cc(C)n3n2)c1` as the molecule, how does the Potency read?
Its Potency is “inactive”.

Which Potency does the source give for `COc1ccc(-c2cc(C(=O)N/N=C/c3ccc(O)cc3)[nH]n2)cc1` here?
The Potency was “inactive”.

Which Potency does the source give for `COc1cc(OC)c(C2=NOC(C(=O)O)C2)cc1Cl` (stereo not given) here?
Its Potency is “inactive”.

With `C=CCn1c(SCC(=O)Nc2ccc3c(c2)OCO3)nc2ccccc2c1=O` as the molecule, how does the Potency read?
The Potency was inconclusive [activator, partial curve].

With `O=c1c(-c2ccccc2)nc2cnc(N3CCOCC3)nc2n1C[C@H]1CCCO1` as the molecule, how does the Potency read?
Its Potency is “inactive”.

Which Potency does the source give for `CC[N+](CC)(CC)CCOc1ccc(/C=C\c2ccccc2)cc1` here?
The Potency was “inactive”.

With `CCOc1ccc(OCc2ccc(C(=O)Nc3ccc(Cl)cn3)o2)cc1` as the molecule, how does the Potency read?
Its Potency is inconclusive [activator, single point].

For `CCN(CC)S(=O)(=O)c1cccc(C(=O)Nc2ccccc2)c1`, which Potency is on record?
The Potency was inconclusive [activator, partial curve].

With `CSc1ccccc1NC(=O)CN(c1ccccc1)S(=O)(=O)N(C)C` as the molecule, how does the Potency read?
The Potency was inconclusive [activator, single point].

With `O=C(NCc1cccs1)c1cc2c(s1)CCCC2` as the molecule, how does the Potency read?
Its Potency is inconclusive [activator, partial curve].

Which Potency does the source give for `COc1ccc(-c2nc(CCNC(=O)c3ccco3)cs2)cc1OC` here?
The Potency was inconclusive [activator, partial curve].

With `O=C(c1cccs1)n1cc(C(=S)N2CCOCC2)c2ccccc21` as the molecule, how does the Potency read?
The Potency was inconclusive [activator, partial curve].

For `CC(C)(C)c1ccc(S(=O)(=O)/C=C\C#N)cc1`, which Potency is on record?
Its Potency is active: 25.1 µM.

With `Cc1c2c(nc3c(C(=O)NC4CCCCC4C)cnn13)CCCC2` (stereo not given) as the molecule, how does the Potency read?
Its Potency is inconclusive [activator, single point].

Which Potency does the source give for `COc1ccc2c(c1)CCc1c(C(=O)NCCN3CCOCC3)noc1-2` here?
Its Potency is inconclusive [activator, single point].

With `CCOC(=O)C(C)Sc1nc2c(cnn2-c2ccc(C)cc2)c(=O)[nH]1` (stereo not given) as the molecule, how does the Potency read?
The Potency was “inactive”.

For `Clc1ccc(Cn2nnc(-c3ccc(N4CCOCC4)cc3)n2)cc1`, which Potency is on record?
Its Potency is inconclusive [activator, single point].

Which Potency does the source give for `Cc1ccc(C(=O)CSc2nnc(COc3cccc(C)c3)o2)cc1` here?
The Potency was inconclusive [activator, partial curve].
